Some of the results follow. At the low end of the ranking the order means little. Measured with an extract: partners may take part in the binding.
molecular target: T1, HNF4alpha2 (COS-7 nuclear extract) (UniProt P41235); experiment: protein-binding microarray; settings: COS-7 nuclear extract on double-stranded Agilent 4x180k PBM; binding buffer, salt, pH and temperature not given; high values mean tight binding; double strand, one strand shown; sequences stand for … in …GCCTAGGGAGATTAGAGTATCGGTCGA
T1 sequence: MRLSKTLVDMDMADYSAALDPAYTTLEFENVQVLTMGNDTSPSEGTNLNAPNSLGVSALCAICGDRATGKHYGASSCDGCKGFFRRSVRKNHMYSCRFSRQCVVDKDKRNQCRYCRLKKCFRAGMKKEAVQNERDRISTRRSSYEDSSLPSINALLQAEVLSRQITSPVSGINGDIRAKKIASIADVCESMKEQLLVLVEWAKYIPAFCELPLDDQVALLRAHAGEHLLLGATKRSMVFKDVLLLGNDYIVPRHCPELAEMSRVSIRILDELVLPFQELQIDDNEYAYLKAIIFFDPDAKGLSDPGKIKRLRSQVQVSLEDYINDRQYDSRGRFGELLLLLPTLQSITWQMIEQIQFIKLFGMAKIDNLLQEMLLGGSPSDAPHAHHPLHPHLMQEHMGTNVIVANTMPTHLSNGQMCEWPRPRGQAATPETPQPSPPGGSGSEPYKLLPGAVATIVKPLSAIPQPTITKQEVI

Sequence	binding signal (log2 normalized intensity)
TGTACCTTTGACTATGGGCATGAAGTCAAA	0.743
GAAAAAACCCATCCACCCATCCAAAGGTCA	4.97
CAGTTTCTCTGTGAATCCACAGTAAAACAT	-1.19
CCAGGCAGCACAATTTGTGTCTCTCACCTG	-0.903
GAGGGCTGCTTATCTAGGATGAGAATCCAC	0.204
CAACCACACCAACATGGACTTTGTCACAAG	5.88
CTGATCTTAAGTTGTACCTGACTAAAACCT	-0.645
GTGAGAAGGGGTAGTGATCCTGGTAGGGGG	-0.96
TGCAGCAGCATCCAGCCCCAGGCTGAGCGT	-1.24
GATACAGCATGGCCCAGGGACTCAGGCACA	-1.04
GCCTGGGAAAATGTTGATTACGTGTTCCCA	0.412
TCTGCAAACACCCCTCCCCCACACAGACAA	5.01
ATCTTGCCTGTTGTATGGTTTTGTGCTAGA	1.44
AACACTTTCTAAGGACACAACAGAATGTGA	-0.05
TGAACACTTCTTTGTTACTTACAGACTTTC	1.27
GGAGTTTCAGAGGACTGCCCAGCTGCATCC	-1.05
GCGGGCGGACTCCGAGCCATTTTGGAGCCG	-1.08
TCTTCAAGAGGCCCATCTCACACATAATGA	-0.564
CCCCAACAAAGCTCTGCATCCTTCCCTAAG	-1.05
GCAGACTCCCTAGAAGAGTGAACCTAGTGG	-0.548
TTTGACAAAAAATGATGAATTTTCATCCCT	-1.14
TATAAAGGTCAACTGCCCTCTCAAATTACA	1.51
ACTAGCCAAACAGGTTGGGGAGGTTTGGCT	-0.923
GTTTGATAGAGAAGTTTTGAAACCCTGTTC	0.439
GAGTGATCCTGAAAACAAATAGAGCAGACT	-1.23

Sequence	binding signal (log2 normalized intensity)
GTGACTAAATGAGAAGAAATGATGGGTGCC	-0.768
CTTGTGATTACACTGGGCTCACCTGAATGA	-1.08
GAAACTAAAGTCTGTTTGATTCCATGCTGA	-1.11
ACATAACAGGTTTGTAACTTCTTGGCCTGC	0.492
GACCCAGGAGCCTTCCGGAGGCTCTGCTGA	-1.12
CCTCCCCTAGACTTACTATTATGCCTTGAC	0.618
GCTGCAGGCATGAGAGGTGCTGCATGGGCT	-0.94
TCCTTAGATAAAAAGCTTTTCTTCCCCCCT	4.12
GGAGGGAGGAGCACAGAAGGAGAGAGAGGG	-1.05
ATTTGCGATAATAGAGATTGCTTAATGCAA	-0.868
ACATTGCATTCCACCCTGGCAGAGGAAAAA	-1.09
TAATTGCCCTTTGCCCTTTGCCCAACCCTC	7.02
TTCCCCTTTGACTTAGGATCAGTAGCATTA	0.918
AGAACTGGGCGAGCCCTCTGATCTGACCCC	5.8
GCTTGAAAAGAAGAAAAAACAGGTGTTCTT	0.477
TTGTCCCTTTCAAGGGCTTACAACTCTAAG	-1.05
GGGTGTCTGCTGTTCTTGCCTGATAGCATC	1.03
CTGGCTGAAGACCTGTACAGGGACTGTGTC	0.956
CGTAATGTGTCCCCACATCTGTGAAAACGA	1.69
AATAAGGATTATCACTGAATCGAGGCTATT	-1.08
TGCCAAGGAGCCTCTGCAACCTTTGCTCTC	5.9
CACAGCACAAGATAAGATAGGAATTTGAGT	-1.1
CCACAGAGTTGCTGTGACAGACAGGTGAGA	-0.892
TATTCCTTGTCCTTGACCCTTCCTCCCATT	3.61
TCAGGGTAAATCCCGTCCCTGCCAAAGGTC	4.8

Sequence	binding signal (log2 normalized intensity)
GGTGATTTCAGACTATTTTATTTTCCCCCT	4.06
AGATTAGATATATCTGTACTCAAACACTGC	-0.305
TTTGAAGCATGGAGAAAATTCTGGACCTTC	2.31
TTGGTGGGCTTTTGTCACATTCCAGACTTT	2.73
CCCCTGCCCCCAGGTAGAGAGCAATCATGC	2.4
TTGGTATTACATTACAACCAAAGGAATTTA	-1.11
TGCTCCCTCCTTCAGTGCTCTGTTGAGTCA	0.377
TCTGTCCCATGGTGTACAAGGAGTCTCCAC	0.797
GGTTCAGAGACCTGGCGGATAGATAGAATC	-1.1
ACGCCGTCTCAAAAAAAAAAAAAAGGCAGT	-1.14
AGTCCAGAAATAGCATCACGAAAGGCAACA	-0.686
TATGTTTGTGCTGGTTACTAAACACTTACA	-1.12
CGGCGGCCCAGTCAAACCCCGCGCTCCAGG	-1.04
ACAAATGTCAGACAAACAGACTTCACACTA	-0.99
AGATGGTCTCAGGTGGAGATAAGGAATTTG	-0.171
ATACTTAGGATTTTTGTGCCTCTTTGGTGA	1.13
GTTTCCCTCTCTCTCTCTCTCTCACACACA	1.31
GGCCCCAGTGCACGTGCATGAGGCCCCTTG	2.18
TCTATCAGTACAAATAAACCTTTGACCAAT	4.32
TCTCTCCCACTTATCTCAATCCTGCTCAAT	0.55
GGGTAGATAAGGATGGATCAAAGGAAACTG	-1.2
TAGCTACTGCAATAAAGTGGGTTGAAGTTC	1.55
TAATGGAATTGACATTCAATTGCAAGCTTA	-1.13
GGAGGGAACAGCAAGACTTTGGCCCTGCAG	-0.791
CAAACATTTGGAAAACATCATTCCGTGACT	-1.08

Sequence	binding signal (log2 normalized intensity)
GCCTGGCTGGCCTGGCAAATCTCTAAATTC	-1.19
AAGCGGACAAACCAGTCCCATCTGTGCTCA	-1.16
ACTATTTTCAAAGGTCAACATACAGAGGCT	1.84
CTCCAAACAAATTGAGAAAGATTAAGAGGC	-1.2
AATGAATGTCACTTTCTGACTGGCCTGGGA	1.49
CCGAGGCTGACAGCAGAGAGTTTTCCTTGG	-0.272
CTCCTGACCTTTGGACTTGATAGAGTTTAA	7.57
TGATAACATGAGGTAGAGGGACACTGATAA	-1.07
TGCTTCAGTCTCCCAAGTAGCTCATTTATT	0.972
AACACCTGGGTCTGACCTCTTTCAAGCCTG	0.86
GTGCTTTCTGTCCTCTCAAAGTCCACCCGG	3.58
TGCGTTTCAAAGCCAGGACTTTCAGGAATG	-1.14
AAAGCCATCAGCACTGGTTCAAAGTGTAGC	0.876
TCCACAGAGTTCATAATTTTGGACTTTGTG	6.15
AAGTCCCCTTTCCTCATATTTTGCATACCA	1.79
CTCTGCACCCTTCCCTGAGTTTCCATTAAC	1.28
TTTCACAAATCATTACTATCTGCTGGGGGC	-0.0971
AGCCTTAGGTATGCCCCATGGTAAGAACTA	0.745
CTTGTATCGCCTGAATGACCACATGCCCTC	2.41
GGGAACTCCCTGACCCCTAGCACTTCCCGA	3.14
TGAATCCTCTTTGAGTCTGGTGTTCTCTTG	1.73
ATTGCCAATATCTGCCATCTACTAAGTGCT	-1.17
GAGTAAAGTATCCAGTTAATCCCAGAAGAA	-0.339
TGCGCAAACATAAAGGCAAAGGTCAAGGAC	3.92
GTTTCCCTGTTTGCTTCTGCCCCCTGGAGG	2.99

Sequence	binding signal (log2 normalized intensity)
GAAGGCCCCAATTGCCAAGGGGGTGGTGAA	-0.785
TTGCTGCTCTCGCCTGGAAGTCCATTTCCC	1.67
GCTAAACAATTAAAGAACTCTTCATTATGG	-0.854
TCATTACCTCCCTGGGCATGTCTGCTCCCT	1.52
TATGGCGAAAAAGGAAATATCTTCCCATAA	-1.11
GGGTTCTTGGATCCTCAGGGTTCATAGATG	2.08
TTCCCTCTCTCCTGGTTTGGGGCCTAAATG	0.626
AAGTTTGCAAACAGTAAAGAACAAACTTCC	-0.882
GGTACCCTGGATACGGAAGGTGCTCAGAAA	-0.956
TGAATGCCTGGGCATGGCTGTGTTCCAGTA	0.581
CAACGGAGGTGGGAAAGACTTAGGATCTAG	-1.3
TATGCCCAGAGCTTTGTTCTGTTCCAGTTA	0.376
GTCCCGTTATGGCACCAAGAAACCTTTCCC	-1.04
CTACAGCCCACAATTGCATGTTCAACAGAC	-0.797
GATGCATGCACTTCATTGTGCACCCACTTG	-0.091
GAACCCAAGCAATCTGGCTGCAGAGTCCAA	2.04
GGTCAAGCTAAGCACAACTGATTCTATTTA	-1.12
CTTTTGTTTTTCTTCAAGGAGGTGAACTTT	5.1
CCCCTGCACAGTCAAAAATTTGTGTGTAAC	1.89
CTCTCCCTCCTCTCTGAGCAGTCAAACTGG	1.96
ACTGCCCTCTGCCTTTCAGGCAGGAGACGA	-1.2
TATATGTTTTGCAACAAAGGCACTTTGATA	1.47
TGACTTCCAATTTACTTTTTAAACACCTAG	-1.18
GTGTGGCATCTTGGGGTCAAGGCCTTTAAG	1.64
AATTCTTTGCTGTGGTAGGCTGTCCTGTGC	1.56

Sequence	binding signal (log2 normalized intensity)
GCTTAGGACTGCAGGGGGCCAAGGGATACC	-1.1
GTTCTGCCATCTCGCAGAAAGTGGCCGGAC	1.62
ACGTGGCAATCATTCTGTCTGCCTTCAGGC	-0.947
CCCTTTGCACATGCCCCTCCCAGGGACACA	3.12
GCTCCAGGTAGTCCCTGCTCCACGCAAACA	-1.1
AGCCTTCCTGTTCAACTATTCCTCGACCTT	2.11
ATCCAGTAGAGGGCATAGCAGATAAGCATT	-0.984
GTTGCCTATGCCCTTTGAAATTCTGGACTT	3.31
GAACGCTCACAGAAAGAAGAGACAGCTGGG	-1.23
CAGGGTGGACTTTAAACATTCCCACCTAAG	3.18
CACGTAAATAAGGATAAAGTAAGGTGAAGC	-0.82
TGCTCCAGGCAAAGGGCATAACATGAGGCA	-1.15
GAGCACAGAAGGAGGGCGGGGAGTCTCCTG	-1.14
GCTTGAAAACACAACAAAAGAACTCAAGAG	-1.05
CTGTGCTTTGGCCAAATAATAGCATTGTAG	0.358
GCTTCTCTTGGACCTCAATGTGCTCATCCA	0.722
AACAAACTTTGCTGTGTCCCACAGGGAAAG	-0.81
AACATCTTTGGTATGGACTGATATTCAAAC	0.994
CACACCACACTCTCCTCCTGGCCTCCACTC	-1.26
GGAGTTGGAACGGGGGCAAGGGTCAGAGTA	4.26
